According to patent publication US11077078B2, “Compositions and methods for the treatment of cancer” (KoDiscovery, LLC, priority 2006, dated 2021):
Where two headings read alike, the source gives them in different places.

Legend:
[1] = tested on: human lung cancer cells; experiment: cells; details: 24 h, read-out: Inhibition of Cell Proliferation, %
[2] = tested on: human lung cancer cells

| Compound | inhibition at 50 µM [1] [%] | other results |
| --- | --- | --- |
| CC(=O)O[C@H]1C(=O)[C@@]2(C)[C@H]([C@H](OC(=O)c3ccccc3)[C@]3(O)C[C@H](OC(=O)[C@H](O)[C@@H](NC(=O)c4ccccc4)c4ccccc4)C(C)=C1C3(C)C)[C@]1(OC(C)=O)CO[C@@H]1C[C@@H]2O [Paclitaxel] | 0 | – |
| N.N.O=C([O-])C1(C(=O)[O-])CCC1.[Pt+2] [Carboplatin] | – | Inhibition of Cell Proliferation, % ([2]; Anticancer agent at 50 μM, for 24 hrs): 4.5% |
| COc1cccc2c1C(=O)c1c(O)c3c(c(O)c1C2=O)C[C@@](O)(C(=O)CO)C[C@@H]3O[C@H]1C[C@H](N)[C@H](O)[C@H](C)O1 [Doxorubicin] | 39.6 | – |
| CN(Cc1cnc2nc(N)nc(N)c2n1)c1ccc(C(=O)N[C@@H](CCC(=O)O)C(=O)O)cc1 [Methotrexate] | 28 | – |
| O=C(O)C(=O)CBr [3-Bromopyruvate, 3-bromopyruvate] | – | Inhibition of Cell Proliferation, % ([2]; 50 µM): 92.5% |
| O=c1[nH]cc(F)c(=O)[nH]1 [5-Fluorouracil] | 17.8 | – |
| O=P1(N(CCCl)CCCl)NCCCO1 (stereo not shown) [Cyclophosphamide] | 0 | – |
